From patent US20250313546A1, “NUCLEIC ACID BINDERS” (UNIVERSITY OF STRATHCLYDE, priority 2022, published 2025)

Tests used:
[1] = test system: T. congolense IL3000 (a drug sensitive wild type); test: Resazurin-based (Alamar blue) drug sensitivity assay; conditions: Trypanosoma congolense, read-out: IC50 T. congo
Experimental: A detailed description of the procedure for evaluating activity against trypanosomes, using an Alamar Blue (resazurin) assay, is described below.
The BSF T. congolense IL3000 and a clonal line, 6C3, adapted from IL3000 in vitro with diminazene aceturate (Merck), leading to a ˜10-fold resistance, were cultured in TCBSF3 medium without red blood cells (see Zheoat, A. M. et al., 2021, Pathogens (Basel, Switzerland), 10(2), 175). Dulbecco's minimum essential medium (MEM) was supplemented with 25 mM (4-(2-hydroxyethyl)-1-piperazineethanesulfonic acid) (HEPES), 26 mM NaHCO3, 5.6 mM Dd-glucose, 1 mM sodium pyruvate, 40 μM adenosine, 100 μM hypoxanthine, 16.5 μM thymidine, and 25 μM bathocuproinedisulfonic acid disodium salt. To this basal medium were added β-mercaptoethanol (0.0014% v/v), 1.6 mM glutamine, 100 units/mL penicillin/0.1 mg/mL streptomycin (Gibco), 20% goat serum (Gibco), and 5% Serum Plus (SAFC Bi-osciences) (see Coustou, V. et al., 2010, PLoS Negl. Trop. Dis., 4, e618 and Giordani, F. et al., J. Med. Chem., 2019, 62, 3021-3035). The BSF T. congolense IL3000 WT and its derived line, 6C3, were cultured at 34° C. in a humidified, 5% CO2 environment.
A resazurin-based (Alamar blue) drug sensitivity assay was used to assess and compare the activity of standard trypanocides in the different cell lines investigated (see Gould, M. K. et al., Anal. Biochem., 2008, 382, 87-93). Briefly, 23 doubling dilutions of the test compound of the invention, starting at 100 μM, and a compound-free control were prepared in 100 μL medium in a 96-well white plate (Greiner Bio-one, Frickenhausen, Germany). The cells were adjusted to 2×10^4 cells/mL for T. b. brucei and T. equiperdum; 4×10^4 cells/mL for T. evansi; and 5×10^5 cells/mL for T. congolense in the appropriate medium. 100 μL of the adjusted cells was then added to the wells containing drug dilutions and incubated for 48 h under respective culture condition. Thereafter, 20 μL of 125 mg/mL resazurin sodium dye was added, and the plate was incubated for a further 24 h. The resorufin fluorescence in each well of the plate was determined and used to calculate the Half maximal effective concentration (EC50) of the drug, as described in Carruthers, L. V. et al., Mol. Microbiol., 2021, 116, 564-588.

[2] = test system: T. b. brucei Lister S427 (a drug-sensitive wild type); test: as above; conditions: for IC50: Trypanosoma brucei, read-out: IC50 T.b. brucei; for T.b. brucei Selectivity Indices (SI, IC50 (μM)/IC50 (μM)) Group / T.b. brucei Selectivity Index (SI, IC50 (μM)/IC50 (μM)), numeric value: cytotoxicity against HEK293 cells vs T.b. brucei

| Compound | IC50 [1] [nM] | IC50 [2] [nM] | T.b. brucei Selectivity Indices (SI, IC50 (μM)/IC50 (μM)) Group ([2]; Quaternary ammoniums) | T.b. brucei Selectivity Index (SI, IC50 (μM)/IC50 (μM)), numeric value [2] | T.b. brucei Selectivity Indices (SI, IC50 (μM)/IC50 (μM)) Group ([2]; Alkyl Amidines and NH Pyrroles) | T.b. brucei Selectivity Indices (SI, IC50 (μM)/IC50 (μM)) Group ([2]; Amides) |
| --- | --- | --- | --- | --- | --- | --- |
| [H]/N=C(\CCNC(=O)c1cc(NC(=O)c2cc(NC(=O)c3ccc(C=Cc4ccc5nonc5c4)cc3)cn2C)cn1C)NCCCN(C)C [Ia46, (E)-4-(4-(2-(benzo[c][1,2,5]oxadiazol-5-yl)vinyl)benzamido)-N-(5-((3-((3-(dimethylamino)propyl)amino)-3-iminopropyl)carbamoyl)-1-methyl-1H-pyrrol-3-yl)-1-methyl-1H-pyrrole-2-carboxamide] | > 1000 | > 1000 |  |  |  |  |
| CCCCCC[N+](C)(C)CCNC(=O)c1cc(NC(=O)c2cc(NC(=O)c3ccc(/C=C/c4cnc5ccccc5c4)cc3)cn2C)cn1C [Ic5, (E)-N,N-dimethyl-N-(2-(1-methyl-4-(1-methyl-4-(4-(2-(quinolin-3-yl)vinyl)benzamido)-1H-pyrrole-2-carboxamido)-1H-pyrrole-2-carboxamido)ethyl)hexan-1-aminium] | < 50 | 50 to 250 | B (Group B: 40 < SI <= 80) |  |  |  |
| CCCCCCCCCNC(=N)CCNC(=O)c1cc(NC(=O)c2cc(NC(=O)c3ccc(/C=C/c4cnc5ccccc5c4)cc3)cn2C)cn1C [Ia36, (E)-N-(3-imino-3-(nonylamino)propyl)-1-methyl-4-(1-methyl-4-(4-(2-(quinolin-3-yl)vinyl)benzamido)-1H-pyrrole-2-carboxamido)-1H-pyrrole-2-carboxamide] | 250 to 1000 | 250 to 1000 |  |  |  |  |
| CNC(=N)CCNC(=O)c1cc(NC(=O)c2cc(NC(=O)c3ccc(/C=C/c4ccc(C(F)(F)F)cc4)cc3)cn2C)cn1C [Ia2, (E)-N-(3-imino-3-(methylamino)propyl)-1-methyl-4-(1-methyl-4-(4-(4-(trifluoromethyl)styryl)benzamido)-1H-pyrrole-2-carboxamido)-1H-pyrrole-2-carboxamide] | 50 to 250 | > 1000 |  |  |  |  |
| C/N=C(/CCNC(=O)c1cc(NC(=O)c2cc(NC(=O)c3ccc(/C=C/c4ccc(C(F)(F)F)cc4)cc3)cn2C)cn1C)NC [Ia5, 1-methyl-4-(1-methyl-4-(4-((E)-4-(trifluoromethyl)styryl)benzamido)-1H-pyrrole-2-carboxamido)-N—((Z)-3-(methylamino)-3-(methylimino)propyl)-1H-pyrrole-2-carboxamide] | < 50 | 250 to 1000 |  |  |  |  |
| CCCCCCCCCCC[N+](C)(C)CCNC(=O)c1cc(NC(=O)c2cc(NC(=O)c3ccc(/C=C/c4cnc5ccccc5c4)cc3)cn2C)cn1C [Ic10, (E)-N,N-dimethyl-N-(2-(1-methyl-4-(1-methyl-4-(4-(2-(quinolin-3-yl)vinyl)benzamido)-1H-pyrrole-2-carboxamido)-1H-pyrrole-2-carboxamido)ethyl)undecan-1-aminium] | 50 to 250 | 50 to 250 | C (Group C: 80 < SI <= 120) |  |  |  |
| CONC(=N)CCNC(=O)c1cc(NC(=O)c2cc(NC(=O)c3ccc(/C=C/c4cnc5ccccc5c4)cc3)cn2C)cn1C [Ia28, (E)-N-(3-imino-3-(methoxyamino)propyl)-1-methyl-4-(1-methyl-4-(4-(2-(quinolin-3-yl)vinyl)benzamido)-1H-pyrrole-2-carboxamido)-1H-pyrrole-2-carboxamide] | 250 to 1000 | < 50 |  |  |  |  |
| CCCCCCCCCCCC[N+](C)(C)CCNC(=O)c1cc(NC(=O)c2cc(NC(=O)c3ccc(/C=C/c4cnc5ccccc5c4)cc3)cn2C)cn1C [Ic11, (E)-N,N-dimethyl-N-(2-(1-methyl-4-(1-methyl-4-(4-(2-(quinolin-3-yl)vinyl)benzamido)-1H-pyrrole-2-carboxamido)-1H-pyrrole-2-carboxamido)ethyl)dodecan-1-aminium] | 50 to 250 | 250 to 1000 |  |  |  |  |
| CCCCCCCC[N+](C)(C)CCNC(=O)c1cc(NC(=O)c2cc(NC(=O)c3ccc(/C=C/c4cnc5ccccc5c4)cc3)cn2C)cn1C [Ic7, (E)-N,N-dimethyl-N-(2-(1-methyl-4-(1-methyl-4-(4-(2-(quinolin-3-yl)vinyl)benzamido)-1H-pyrrole-2-carboxamido)-1H-pyrrole-2-carboxamido)ethyl)octan-1-aminium] | < 50 | < 50 | D (Group D: SI > 120) | 247 |  |  |
| COc1cccc(/C=C/c2ccc(C(=O)Nc3cc(C(=O)Nc4cc(C(=O)NCCC(=N)NC(C)C)n(C)c4)n(C)c3)cn2)c1 [Ia23, (E)-N-(5-((5-((3-imino-3-(isopropylamino)propyl)carbamoyl)-1-methyl-1H-pyrrol-3-yl)carbamoyl)-1-methyl-1H-pyrrol-3-yl)-6-(3-methoxystyryl)nicotinamide] | > 1000 | > 1000 |  |  |  |  |
| [H]/N=C(\CCNC(=O)c1cc(NC(=O)c2cc(NC(=O)c3ccc(C=Cc4ccc5nonc5c4)cc3)cn2C)cn1C)NC [Ia3, (E)-4-(4-(2-(benzo[c][1,2,5]oxadiazol-5-yl)vinyl)benzamido)-N-(5-((3-imino-3-(methylamino)propyl)carbamoyl)-1-methyl-1H-pyrrol-3-yl)-1-methyl-1H-pyrrole-2-carboxamide] | < 50 | 250 to 1000 |  |  |  |  |
| COc1ccc(/C=C/c2ccc(C(=O)Nc3cc(C(=O)Nc4cc(C(=O)NCCC(=N)NC(C)C)n(C)c4)n(C)c3)cc2)cc1 [Ia18, (E)-N-(3-imino-3-(isopropylamino)propyl)-4-(4-(4-(4-methoxystyryl)benzamido)-1-methyl-1H-pyrrole-2-carboxamido)-1-methyl-1H-pyrrole-2-carboxamide] | < 50 | 250 to 1000 |  |  | B (Group B: 70 < SI <= 150) |  |
| CC(C)=CCC/C(C)=C/CNC(=O)c1cc(NC(=O)c2cc(NC(=O)c3ccc(/C=C/c4cnc5ccccc5c4)cc3)cn2C)cn1C [IVa10, N—((E)-3,7-dimethylocta-2,6-dien-1-yl)-1-methyl-4-(1-methyl-4-(4-((E)-2-(quinolin-3-yl)vinyl)benzamido)-1H-pyrrole-2-carboxamido)-1H-pyrrole-2-carboxamide] | > 1000 | 250 to 1000 |  |  |  | B (Group B: 0.7 < SI <= 1.5) |
| CCCCNC(=O)c1cc(NC(=O)c2cc(NC(=O)c3ccc(/C=C/c4cnc5ccccc5c4)cc3)cn2C)cn1C [IVa5, (E)-N-butyl-1-methyl-4-(1-methyl-4-(4-(2-(quinolin-3-yl)vinyl)benzamido)-1H-pyrrole-2-carboxamido)-1H-pyrrole-2-carboxamide] | 250 to 1000 | 250 to 1000 |  | 6 |  | D (Group D: SI > 3) |
| CCCCCCCCCCCCCCC[N+](C)(C)CCNC(=O)c1cc(NC(=O)c2cc(NC(=O)c3ccc(/C=C/c4cnc5ccccc5c4)cc3)cn2C)cn1C [Ic14, (E)-N,N-dimethyl-N-(2-(1-methyl-4-(1-methyl-4-(4-(2-(quinolin-3-yl)vinyl)benzamido)-1H-pyrrole-2-carboxamido)-1H-pyrrole-2-carboxamido)ethyl)pentadecan-1-aminium] | > 1000 | > 1000 |  |  |  |  |
| [H]/N=C(\CCNC(=O)c1cc(NC(=O)c2cc(NC(=O)c3ccc(C=Cc4ccc5nonc5c4)cc3)cn2C)cn1C)NCCC1CCOCC1 [Ia45, (E)-4-(4-(2-(benzo[c][1,2,5]oxadiazol-5-yl)vinyl)benzamido)-N-(5-((3-imino-3-((2-(tetrahydro-2H-pyran-4-yl)ethyl)amino)propyl)carbamoyl)-1-methyl-1H-pyrrol-3-yl)-1-methyl-1H-pyrrole-2-carboxamide] | 50 to 250 | 50 to 250 |  | 360 | D (Group D: SI > 300) |  |
| COc1cccc(/C=C/c2ccc(C(=O)Nc3cc(C(=O)Nc4cc(C(=O)NCCC(=N)NC(C)C)n(C)c4)n(C)c3)cc2)c1 [Ia19, (E)-N-(3-imino-3-(isopropylamino)propyl)-4-(4-(4-(3-methoxystyryl)benzamido)-1-methyl-1H-pyrrole-2-carboxamido)-1-methyl-1H-pyrrole-2-carboxamide] | < 50 | 250 to 1000 |  |  | B (Group B: 70 < SI <= 150) |  |
